The campaign covered roughly 45,000 compounds. About 200 (0.44%) were called active. Inconclusive results (about 7%) are left out. Calls follow the shape of the dose curve; as a rule, active = well fitted activation curve with a large enough effect; inconclusive = small, poorly fitted or top-dose-only effect; inactive = no such curve, though single readings can be large or run the other way. The list shows a part of the results.
Experiment: qHTS of TDP-43 Inhibitors: NCGC Sytravon Library Screen; also: 0% is about no effect; nearly all actives have a fitted effect of over 55% in size
Conditions: yeast TDP-43 toxicity rescue, BacTiter-Glo growth, 24 h; at 46.1 µM (top of the series)
Method in brief: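 TDP-43-expressing yeast, pregrown in raffinose, seeded at OD600 0.02 in galactose medium with compound for 24 hr at 30 deg C. Growth read by BacTiter-Glo luminescence, so rescue of toxicity appears as activation.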
For CC(C)CN(C(=O)CN1CC=C(c2ccccc2)CC1)c1c(N)n(CC(C)C)c(=O)[nH]c1=O, the growth rescue (activation) was inactive: -7.54%. For COc1ccccc1N1C(=O)NC(=O)/C(=C/c2ccc3c4c(cccc24)CC3)C1=O, the growth rescue (activation) was inactive: 1.44%. In the case of C=CCn1c(O)c(C(C)=Nc2cc(OC)ccc2OC)c(=O)[nH]c1=O, the growth rescue (activation) is reported as inactive: -17.9%. For c1ccc(CNc2c3c(nc4ccccc24)CCC3)cc1, the growth rescue (activation) was inactive: 11.6%. With CN1C(=O)C(=Cc2ccccc2OCc2ccc(C(=O)O)cc2)C(=O)N(C)C1=O the growth rescue (activation) was inactive: -0.293%. With CN(C(=O)c1ccc(Cl)nc1)C1(c2ccccc2Cl)CCCCC1=O (centres undefined) the growth rescue (activation) was inactive: 17.1%. With O=C(/C=C/c1ccc2c(c1)OCO2)c1c(O)n(CCC2=CCCCC2)c(=O)[nH]c1=O the growth rescue (activation) was inactive: -4.73%. With CN(C)c1ccc(/C=C/C=C/c2sc3ccccc3[n+]2C)cc1 the growth rescue (activation) was inactive: -35.2%. For COC(=O)Cn1cc(/C=C2\C(=O)NC(=O)N(c3ccccc3)C2=O)c2ccccc21, the growth rescue (activation) was inactive: -6.24%. For C[n+]1c(-c2ccccc2)cc(-c2ccc(Cl)cc2)cc1-c1ccccc1, the growth rescue (activation) was inactive: 5.98%. In the case of O=C1NC(=O)C(Sc2ccccc2[N+](=O)[O-])C(=O)N1, the growth rescue (activation) is reported as inactive: -0.477%. In the case of C=CCN1C(=O)NC(=O)/C(=C/c2ccc(OC)c(COc3ccc(NC(C)=O)cc3)c2)C1=O, the growth rescue (activation) is reported as inactive: -2.12%. In the case of O=Cc1cn(Cc2cccc(F)c2)c2ccccc12, the growth rescue (activation) is reported as inactive: 27%. For CN1CCN(c2cc(N3CCNCC3)ccc2[N+](=O)[O-])CC1, the growth rescue (activation) was inactive: 7.32%. In the case of C[C@]12CC[C@@H](O)CC1=CCC1C2CC[C@@]2(C)C1C[C@@H](F)[C@H]2O (some centres undefined), the growth rescue (activation) is reported as inactive: 26.5%. With COc1ccc(-c2[nH]ncc2CNC(C)Cc2cccc(C)n2)cc1F (centres undefined) the growth rescue (activation) was inactive: 7.11%. With COc1ccc2c(CCN)c[nH]c2c1 the growth rescue (activation) was inactive: 11.9%. For CCn1cc(/C=c2/sc3n(c2=O)C2c4ccccc4OC(C)(N=3)C2C(=O)OC)c(C)n1 (centres undefined), the growth rescue (activation) was inactive: 4.16%. For Cc1ccc(O)c(C(=O)c2cc(C(=O)NCCC(C)C)c(=O)n(CCC(C)C)c2)c1, the growth rescue (activation) was inactive: -11.9%. For COc1ccc(CC2(CCc3ccccn3)C(=O)NC(=O)N(c3ccccc3C)C2=O)cc1OC (centres undefined), the growth rescue (activation) was inactive: 6.99%. For O=c1[nH]c(=O)n(-c2ccc(F)cc2)c(O)c1/C=C1\C=Nc2ccccc21, the growth rescue (activation) was inactive: -6.33%. For O=C1NC(=O)N(c2ccccc2)C(=O)/C1=C\c1ccc([N+](=O)[O-])s1, the growth rescue (activation) was inactive: 24.7%. With NC(Cc1ccccc1)c1nc2ccccc2[nH]1 (centres undefined) the growth rescue (activation) was inactive: 1.79%. For Cc1c(N=Nc2c(O)[nH]c(=O)[nH]c2=O)c(=O)n(-c2ccccc2)n1C, the growth rescue (activation) was inactive: -0.708%. In the case of Cc1cc(N2CCOCC2)ccc1/C=C1\C(=O)NC(=O)N(c2ccccc2)C1=O, the growth rescue (activation) is reported as inactive: 1.09%. In the case of Cc1ccc2c(c1)c(=O)c1c3n2CCN(CC2CO2)C3CC1 (centres undefined), the growth rescue (activation) is reported as inactive: -2.4%. With OCCOCC#CCN1CCOCC1 the growth rescue (activation) was inactive: -13%. For Cc1ccccc1-n1c(O)c(/C=C2/C(c3ccccc3)=Nc3ccccc32)c(=O)[nH]c1=O, the growth rescue (activation) was inactive: 20.3%. For O=c1c2ccccc2nc(/C=C\c2ccccc2[N+](=O)[O-])n1-c1ccccc1O, the growth rescue (activation) was inactive: 13.8%. For COc1ccc(OCC(=O)N2CCN(CC3CC4C=CC3C4)CC2)cc1 (centres undefined), the growth rescue (activation) was inactive: 1.8%. With COc1cc(CC2(CCc3ccncc3)C(=O)N(C)C(=O)N(C)C2=O)cc(OC)c1OC the growth rescue (activation) was inactive: 4.35%. For CCc1ccc(N2C(=O)NC(=O)C(CCc3ccncc3)(CCc3ccncc3)C2=O)cc1, the growth rescue (activation) was inactive: 3%. With C[C@@H]1CC2C3CC=C4C[C@@H](O)CC[C@]4(C)C3CC[C@]2(C)[C@H]1O (some centres undefined) the growth rescue (activation) was inactive: 17.6%. With CC(=O)N1CN2CN(C1)CN(C(C)=O)C2 the growth rescue (activation) was inactive: 5.84%. For O=C(CSC1c2ccccc2-c2ccccc21)N/N=C/c1ccc(C(=O)O)cc1, the growth rescue (activation) was inactive: 10.7%. With C=CCn1c(O)c(C(CC)=NCCc2c[nH]c3ccccc23)c(=O)[nH]c1=O the growth rescue (activation) was inactive: 14.6%. For CC(=NCCCO)c1c(O)[nH]c(=O)[nH]c1=O, the growth rescue (activation) was inactive: 9.16%. With Nc1c2c(nc3sc4c(c13)CCCC4)CCCC2 the growth rescue (activation) was inactive: 6.52%. With CC1CN(CC(=O)c2ccccc2Cl)CC(C)O1 (centres undefined) the growth rescue (activation) was inactive: 11%. In the case of O=[N+]([O-])NC1=NCN(Cc2ccco2)CN1Cc1ccco1, the growth rescue (activation) is reported as inactive: -30.4%. For O=C1NC(=S)N(c2ccccc2)C(=O)/C1=C/c1ccco1, the growth rescue (activation) was inactive: -5.89%. With CN(C)C(=O)Oc1ccc2c(c1)O/C(=C\c1cccc(Cl)c1)C2=O the growth rescue (activation) was inactive: 6.08%. For Cc1ccc(C2=NN(CCC(=O)N3CCC4(CC3)OCCO4)C(=O)CC2)cc1, the growth rescue (activation) was inactive: -18.3%. For CN(Cc1c[nH]c2ccccc12)C1CCCCC1, the growth rescue (activation) was inactive: 15.1%.

Reference: PubChem BioAssay AID1347073 (National Center for Advancing Translational Sciences (NCATS), 2019)
